Values marked as one replicate rest on one cluster of the flow cell; about a third of the high ones do not repeat.
The sequences below were run on ATP (assay: switch fluorescence ratio, 500 uM ATP over buffer (Cy3 cluster intensity, sum of 5 cycles each) (fold (ratio)); higher = stronger signal-on switching upon ATP binding; sequences stand for … in TCGTCGGCAGCGTCAGATGTGTATAAGAGACAGTTTTTTTTTTTTTTTTTTTTTTTTT…TC). Details: aptamer strand: ATP DNA aptamer (quencher-CACCTGGGGGAGTATTGCGGAGGAAGG + anchor), 100 nM annealed; ATP concentration: 500 uM; one replicate.
In short: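 After annealing to 100 nM quencher-labelled ATP aptamer, Cy3-labelled switching-strand clusters on a modified Illumina MiSeq flow-cell were imaged in selection buffer. A second image followed after 15 min with 500 uM ATP at 22 °C, and five such buffer/ATP cycles were done, each separated by NaOH stripping and re-annealing. The fluorescence ratio, averaged per switch-domain sequence, is summed target-cycle over summed buffer-cycle Cy3 intensity per cluster, with clusters outside 100-1000 RFU excluded.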
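Further: ATP exposure 15 min at 22 °C before imaging.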

Sequence | switch fluorescence ratio
ACGGTGAAGC | 0.971
ACGGTGATTG | 1.04
ACGGTTGGAG | 1
ACGGTTTGTA | 1
ACGTAAAGT | 1.04
ACGTAAGTTT | 1.06
ACGTAGGCT | 1.07
ACGTAGGGGA | 0.978
ACGTATCGGG | 1.03
ACGTCATGCA | 1.15
ACGTCATGTA | 1.06
ACGTCGTAT | 0.964
ACGTCTAGGG | 1.02
ACGTCTGATA | 1.01
ACGTCTGTAC | 2.22
ACGTGACTCA | 1.29
ACGTGATTCC | 1.16
ACGTGCTTCC | 1.86
ACGTGGCCAA | 1.02
ACGTGGGCA | 0.963
ACGTGTGGGT | 0.972
ACGTTAAATT | 1.13
ACGTTAAGTA | 0.992
ACGTTCTATT | 1.01
ACGTTGCCGT | 0.97

Sequence | switch fluorescence ratio
ACGTTGGACC | 1.09
ACGTTGGGGT | 1.02
ACGTTGTTAC | 1.16
ACGTTGTTGC | 1.01
ACGTTTAAAG | 0.997
ACGTTTACGA | 1.08
ACGTTTAGAG | 1.01
ACGTTTCAGG | 1.07
ACGTTTGT | 0.968
ACTAAAACTT | 1.09
ACTAAAATCC | 1.24
ACTAAAGAA | 1.02
ACTAAAGCAC | 1.22
ACTAAAGCGG | 1.04
ACTAAAGCGT | 1.03
ACTAACCACC | 1.3
ACTAAGCAAG | 1.33
ACTAAGGAAT | 1.1
ACTAATCATA | 1.03
ACTAATCGC | 1.07
ACTAATTACT | 1.14
ACTACAATGA | 1.01
ACTACCTGTG | 1.45
ACTACTAAGA | 1.09
ACTAGAAAAT | 1.01

Sequence | switch fluorescence ratio
ACTAGAAACA | 1.04
ACTAGATCAT | 0.997
ACTAGATTTA | 0.978
ACTAGGAAGA | 0.994
ACTAGGCATA | 1.14
ACTAGGTGTT | 1.28
ACTAGTCCTT | 0.982
ACTAGTCTGA | 1.04
ACTATAGGG | 1.02
ACTATGCGGC | 1.14
ACTATGGCAG | 1.04
ACTATTATGC | 1.13
ACTATTCGGA | 0.963
ACTATTCGTA | 1.01
ACTATTGGCC | 1
ACTATTTATC | 1.02
ACTATTTGCC | 1.04
ACTATTTTTA | 1.01
ACTCACGGG | 1.39
ACTCACTACT | 1.28
ACTCAGAGTT | 0.977
ACTCAGTAGT | 1.05
ACTCATATAG | 1.06
ACTCATTGGC | 1.06
ACTCCAGACA | 1.2

Sequence | switch fluorescence ratio
ACTCCTAGAA | 1.16
ACTCCTTGCA | 1.7
ACTCGCAACT | 4.11
ACTCGTAACG | 1.01
ACTCGTCTTA | 0.997
ACTCGTGGGG | 0.954
ACTCGTGTTT | 1
ACTCTCCACT | 1.15
ACTCTGCCAG | 1.48
ACTCTGCGGA | 3.05
ACTCTGTCGG | 1.11
ACTCTGTTCC | 1.07
ACTCTTAACG | 1.03
ACTCTTGAGA | 1.03
ACTCTTGGG | 0.99
ACTCTTGGGT | 0.953
ACTGACCCCT | 1.17
ACTGAGCTCA | 1.07
ACTGAGGGT | 1.04
ACTGCAACTC | 1.6
ACTGCAGCCC | 1.04
ACTGCATCT | 1.11
ACTGCGATT | 1.13
ACTGCGCCCA | 1.22
ACTGGAAAGG | 1.02

— the supplement of paper PMC10126150
